Assay results from the supplement of paper PMC10126150.
Values marked as one replicate rest on one cluster of the flow cell; about a third of the high ones do not repeat.

System: ATP
Test: switch fluorescence ratio, 500 uM ATP over buffer (Cy3 cluster intensity, sum of 5 cycles each) (fold (ratio)); higher = stronger signal-on switching upon ATP binding; sequences stand for … in TCGTCGGCAGCGTCAGATGTGTATAAGAGACAGTTTTTTTTTTTTTTTTTTTTTTTTT…TC
Conditions: aptamer strand: ATP DNA aptamer (quencher-CACCTGGGGGAGTATTGCGGAGGAAGG + anchor), 100 nM annealed; ATP concentration: 500 uM; one replicate
Procedure, shortened: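 Exposure to 500 uM ATP lasted 15 min at 22 °C before imaging, and a selection-buffer image was taken beforehand, for Cy3-labelled switching-strand clusters on a modified Illumina MiSeq flow-cell annealed to 100 nM quencher-labelled ATP aptamer. Five buffer/ATP cycles were run with NaOH stripping and re-annealing between them. The fluorescence ratio per cluster is summed target-cycle over summed buffer-cycle Cy3 intensity, averaged per switch-domain sequence. Clusters outside 100-1000 RFU were excluded.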

| Sequence | switch fluorescence ratio |
| --- | --- |
| TTCTTCATTG | 0.954 |
| TTCTTCTACT | 1.07 |
| TTCTTGAGTG | 0.993 |
| TTCTTGCCGT | 1.01 |
| TTCTTGTG | 1 |
| TTCTTTAAGG | 1.02 |
| TTCTTTAGTA | 0.924 |
| TTGAAACTAC | 1.17 |
| TTGAAATACG | 2.86 |
| TTGAAATTA | 1.02 |
| TTGAACCCAG | 1.05 |
| TTGAAGAAGC | 1.04 |
| TTGAAGCCCC | 1.19 |
| TTGAAGTCGG | 1 |
| TTGAATACCA | 1.03 |
| TTGAATGGAT | 1.01 |
| TTGAATGGTG | 1.03 |
| TTGAATTCTA | 0.987 |
| TTGACAAAAC | 1 |
| TTGACACTAC | 1.38 |
| TTGACCACA | 1.08 |
| TTGACCACCG | 1.06 |
| TTGACCCCGG | 0.994 |
| TTGACGGGGT | 1.03 |
| TTGACGGGTC | 1.61 |

| Sequence | switch fluorescence ratio |
| --- | --- |
| TTGACGTCAT | 1.36 |
| TTGACGTTTG | 1.02 |
| TTGACTGTCA | 0.987 |
| TTGACTTGAG | 0.989 |
| TTGAGAATGG | 1.03 |
| TTGAGGCAAA | 1.22 |
| TTGAGGCCGA | 1.02 |
| TTGAGGCGCC | 0.999 |
| TTGAGGTGTC | 1.43 |
| TTGAGTCATT | 0.971 |
| TTGAGTGAC | 0.992 |
| TTGAGTGGCG | 0.922 |
| TTGAGTTCGA | 0.988 |
| TTGAGTTTG | 0.934 |
| TTGATGATGT | 1.01 |
| TTGATGCACA | 0.962 |
| TTGATGTAGA | 1.02 |
| TTGATGTTT | 0.96 |
| TTGATTGGAG | 1.05 |
| TTGCAATATT | 1.53 |
| TTGCACTATT | 1.15 |
| TTGCAGTGGG | 1.04 |
| TTGCAGTTCC | 1.05 |
| TTGCATACCA | 1 |
| TTGCATGAAG | 1.01 |

| Sequence | switch fluorescence ratio |
| --- | --- |
| TTGCCACAA | 1.39 |
| TTGCCAGTGG | 1.09 |
| TTGCCGGGTG | 1.5 |
| TTGCGAGCAG | 1.04 |
| TTGCGATCTG | 1.03 |
| TTGCGCAATG | 1.57 |
| TTGCGCTACC | 1.18 |
| TTGCGTCAT | 1.07 |
| TTGCGTCCGG | 0.987 |
| TTGCGTCTTA | 1.06 |
| TTGCGTGCAT | 0.954 |
| TTGCGTTGGT | 0.992 |
| TTGCTAGATC | 1.06 |
| TTGCTCACAG | 0.972 |
| TTGCTCCAGA | 0.967 |
| TTGCTCGGTC | 1.02 |
| TTGCTCTATG | 1.02 |
| TTGCTCTGCC | 1.01 |
| TTGCTGCTAT | 1.11 |
| TTGCTGGG | 0.952 |
| TTGCTGGTAG | 1.06 |
| TTGCTTGGGG | 1.05 |
| TTGCTTTCTT | 1.04 |
| TTGGACATGA | 1.01 |
| TTGGACCACG | 0.988 |

| Sequence | switch fluorescence ratio |
| --- | --- |
| TTGGACGCGT | 1.03 |
| TTGGACGTGG | 0.999 |
| TTGGAGCGAG | 1.13 |
| TTGGAGGAG | 0.987 |
| TTGGATATGA | 1.02 |
| TTGGATCGTT | 0.987 |
| TTGGATTGTA | 1.07 |
| TTGGCAGAAA | 0.971 |
| TTGGCATAGG | 1.02 |
| TTGGCCACGT | 0.987 |
| TTGGCTAAGC | 0.946 |
| TTGGCTACCT | 1.13 |
| TTGGCTGAGC | 1.05 |
| TTGGGAAAAC | 1.09 |
| TTGGGACTGC | 1.03 |
| TTGGGATCT | 1.03 |
| TTGGGCACTC | 1.02 |
| TTGGGCATAA | 1.01 |
| TTGGGCCCTA | 0.99 |
| TTGGGCTCAT | 0.974 |
| TTGGGGACCG | 1 |
| TTGGGGCTAA | 1.01 |
| TTGGGTCTGT | 0.975 |
| TTGGGTGATT | 0.972 |
| TTGGGTGTAA | 0.99 |
